Laboratory results reported in patent US11000038B2, “Pyridone compounds and agricultural and horticultural fungicides containing the same as active ingredients” (priority 2017, dated 2021).

Columns and labels:
[1] = test system: wheat brown rust fungi (Puccinia recondita); experiment: Test Example E: wheat brown rust, spray treatment of wheat plants; format: in vivo; settings: wheat brown rust, spray treatment
[2] = test system: gray mold fungi (Botrytis cinerea); experiment: Test Example B: tomato gray mold, spray treatment of tomato plants; settings: tomato gray mold, spray treatment
[3] = test system: grape downy mildew fungus (Plasmopara viticola); experiment: Test Example G: grape downy mildew, spray treatment of grape plants; settings: grape downy mildew, 250 ppm spray, 7 to 10 days after inoculation
[4] = test system: barley powdery mildew fungi (Blumeria graminis f. sp. hordei); experiment: Test Example D: barley powdery mildew, spray treatment of barley plants; settings: barley powdery mildew, spray treatment
[5] = test system: cabbage Alternaria sooty spot fungi (Alternaia brassicicola); experiment: Test Example C: cabbage Alternaria sooty spot, spray treatment of cabbage plants; format: in vivo; settings: cabbage Alternaria sooty spot, spray treatment
From the text: [Test Example C] Cabbage Alternaria Sooty Spot
Test plants (cabbage variety: Shikidori) were cultivated until the cotyledons extended after the sowing of seeds.
<Control Value> Control value=100{1−(n/3)}

| SMILES | Test E control value [1] | Test B control value [2] | Test G control value [3] | Test D control value [4] | Test C control value [5] |
| --- | --- | --- | --- | --- | --- |
| COc1cccc(-n2cc(Cl)c(=O)c(Br)c2-c2c(F)cc(F)cc2F)c1C [Compound 436] | H (H shows the control value of more than 50%) | H (H shows the control value of more than 50%) | H (H shows the control value of more than 50%) | H (H shows the control value of more than 50%) | H (H shows the control value of more than 50%) |
| Cc1c(F)cccc1-n1cc(C)c(=O)c(C)c1-c1c(F)cc(F)cc1F [Compound 437] | H (H shows the control value of more than 50%) | H (H shows the control value of more than 50%) | L (L shows the control value of 50% or less) | H (H shows the control value of more than 50%) | H (H shows the control value of more than 50%) |
| Cc1c(OCC(C)C)cccc1-n1cc(Br)c(=O)c(Br)c1-c1c(F)cc(F)cc1F [Compound 438] | H (H shows the control value of more than 50%) | H (H shows the control value of more than 50%) | L (L shows the control value of 50% or less) | L (L shows the control value of 50% or less) | H (H shows the control value of more than 50%) |
| Cc1cn(-c2ccccc2Cl)c(-c2c(F)cc(F)cc2F)c(C)c1=O [Compound 439] | H (H shows the control value of more than 50%) | H (H shows the control value of more than 50%) | L (L shows the control value of 50% or less) | H (H shows the control value of more than 50%) | H (H shows the control value of more than 50%) |
| COc1cc(F)c(-c2c(C)c(=O)c(C)cn2-c2cccc(F)c2C)c(F)c1 [Compound 440] | H (H shows the control value of more than 50%) | H (H shows the control value of more than 50%) | L (L shows the control value of 50% or less) | H (H shows the control value of more than 50%) | H (H shows the control value of more than 50%) |
| Cc1cn(-c2ccccc2)c(-c2c(F)cc(F)cc2F)c(C)c1=O [Compound 441] | H (H shows the control value of more than 50%) | H (H shows the control value of more than 50%) | H (H shows the control value of more than 50%) | H (H shows the control value of more than 50%) | H (H shows the control value of more than 50%) |
| CCCc1ccccc1-n1cc(C)c(=O)c(C)c1-c1c(F)cc(F)cc1F [Compound 445] | H (H shows the control value of more than 50%) | H (H shows the control value of more than 50%) | H (H shows the control value of more than 50%) | H (H shows the control value of more than 50%) | H (H shows the control value of more than 50%) |
| CCCc1ccccc1-n1cc(Cl)c(=O)c(Cl)c1-c1c(F)cc(F)cc1F [Compound 446] | H (H shows the control value of more than 50%) | H (H shows the control value of more than 50%) | H (H shows the control value of more than 50%) | H (H shows the control value of more than 50%) | H (H shows the control value of more than 50%) |
| CCCc1ccccc1-n1cc(Cl)c(=O)c(Br)c1-c1c(F)cc(F)cc1F [Compound 447] | H (H shows the control value of more than 50%) | H (H shows the control value of more than 50%) | L (L shows the control value of 50% or less) | H (H shows the control value of more than 50%) | H (H shows the control value of more than 50%) |
| Cc1ccc(F)cc1-n1cc(C)c(=O)c(C)c1-c1c(F)cccc1F [Compound 448] | H (H shows the control value of more than 50%) | H (H shows the control value of more than 50%) | L (L shows the control value of 50% or less) | H (H shows the control value of more than 50%) | H (H shows the control value of more than 50%) |
| Cc1ccc(F)cc1-n1cc(Cl)c(=O)c(Br)c1-c1c(F)cccc1F [Compound 449] | H (H shows the control value of more than 50%) | H (H shows the control value of more than 50%) | L (L shows the control value of 50% or less) | L (L shows the control value of 50% or less) | H (H shows the control value of more than 50%) |
| Cc1cccc(C)c1-n1cc(Br)c(=O)c(Br)c1-c1ccccc1 [Compound 451] | L (L shows the control value of 50% or less) | L (L shows the control value of 50% or less) | L (L shows the control value of 50% or less) | L (L shows the control value of 50% or less) | L (L shows the control value of 50% or less) |
| Cc1cccc(C)c1-n1cc(Br)c(=O)c(Cl)c1-c1ccccc1 [Compound 452] | L (L shows the control value of 50% or less) | L (L shows the control value of 50% or less) | L (L shows the control value of 50% or less) | L (L shows the control value of 50% or less) | L (L shows the control value of 50% or less) |
| Cc1cn(-c2ccccc2Br)c(-c2c(F)cc(F)cc2F)c(C)c1=O [Compound 453] | H (H shows the control value of more than 50%) | H (H shows the control value of more than 50%) | H (H shows the control value of more than 50%) | H (H shows the control value of more than 50%) | H (H shows the control value of more than 50%) |
| Cc1ccc(F)cc1-n1cc(C)c(=O)c(C)c1-c1c(F)cc(F)cc1F [Compound 455] | H (H shows the control value of more than 50%) | H (H shows the control value of more than 50%) | H (H shows the control value of more than 50%) | H (H shows the control value of more than 50%) | H (H shows the control value of more than 50%) |
| Cc1ccc(F)cc1-n1cc(Br)c(=O)c(Cl)c1-c1c(F)cccc1F [Compound 457] | H (H shows the control value of more than 50%) | H (H shows the control value of more than 50%) | L (L shows the control value of 50% or less) | L (L shows the control value of 50% or less) | H (H shows the control value of more than 50%) |
| Cc1ncccc1-n1cc(Br)c(=O)c(Cl)c1-c1c(F)cc(F)cc1F [Compound 458] | H (H shows the control value of more than 50%) | H (H shows the control value of more than 50%) | H (H shows the control value of more than 50%) | H (H shows the control value of more than 50%) | H (H shows the control value of more than 50%) |
